Data: PubChem BioAssay (Tox21)
The shares of active, inactive and inconclusive entries below differ from those in the screen. Where the call is inconclusive, the potency comes from a doubtful curve fit. Active and inactive are the calls of the source. Calls follow the shape of the dose curve; as a rule, active = well fitted curve in the direction sought with a large enough effect in the repeat runs; inconclusive = weak or mixed curves; inactive = no such curve, though single readings can be large; an effect the other way counts as inactive or inconclusive.

Tested on: not listed separately
Assay: qHTS assay to identify small molecule antagonists of the estrogen related receptor (ERR) signaling pathway from Tox21 library - cell viability counter screen (AID 1224834); also: nearly all actives have a fitted effect of over 30% in size
Details: ERR reporter cells viability, CellTiter-Fluor, 17.5 h; series mostly up to 92.4 µM
Method in brief: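 In this quantitative HTS format, ERR cells receive compounds in DMSO and are incubated for 17.5 h at 37 C. Live-cell protease activity is then detected with CellTiter-Fluor.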
Potency is read from the fitted curve at half-maximal effect; tags tell the direction and shape of the fitted curve.

Compound | Potency
Cc1ccc2c(Cl)cc(Cl)c(O)c2n1 | inactive
CCOC(=O)C1=NN(c2ccc(Cl)cc2Cl)C(C)(C(=O)OCC)C1 (configuration not stated) | inconclusive: 68.6 µM [cytotoxic, partial curve, poor fit]
O=C1c2cccc3c2[C@H](CCC3)CN1[C@@H]1CN2CCC1CC2 | inconclusive: 13.3 µM [cytotoxic, partial curve]
CC/C=C(\C)C=O | inactive
Cc1ccc(Nc2nccc(N(C)c3ccc4c(C)n(C)nc4c3)n2)cc1S(N)(=O)=O | active: 29.8 µM
C[N+](C)(CCOc1ccccc1)Cc1cccs1 | inactive
OCC(CO)N[C@H]1C[C@](O)(CO)[C@@H](O)[C@H](O)[C@H]1O | inactive
O=C(N[C@@H](Cc1ccccc1)[C@@H](O)C(=O)N1C[C@@H](O)[C@@H](O)C1)c1cc2cc(Cl)ccc2[nH]1 | inconclusive: 61.1 µM [cytotoxic, partial curve]
CC1=CC(=C(c2ccc(N)cc2)c2ccc(N)cc2)C=CC1=N | inconclusive: 2.76 µM [cytotoxic, partial curve]
COc1ccc2cc(CCC(C)=O)ccc2c1 | inactive
CCN1CCCC1=O | inactive
Cc1c(F)cc2c(=O)c(C(=O)O)cn3c2c1CCC3C (configuration not stated) | inconclusive: 37.6 µM [cytotoxic, single point]
C[C@@H](c1ncncc1F)C(O)(Cn1cncn1)c1ccc(F)cc1F (some centres not stated) | inactive
CN(C)CCOC(c1ccccc1)c1ccccc1 | inconclusive: 69 µM [cytotoxic, partial curve, poor fit]
Nc1nc(CC(=O)O)cs1 | inconclusive: 68.8 µM [cytotoxic, partial curve, poor fit]
Cc1occc1C(=O)Nc1ccc(C(=O)N2CCC(F)(F)/C(=C\C(=O)N3CCC(N4CCCCC4)CC3)c3ccccc32)cc1 | inconclusive: 15.2 µM [cytotoxic, partial curve]
CCc1ccc(CCOc2ccc(CC3SC(=O)NC3=O)cc2)nc1 (configuration not stated) | inconclusive: 68.6 µM [cytotoxic, single point]
CC(C)c1ccc2oc3nc(N)c(C(=O)O)cc3c(=O)c2c1 | inactive
COC(=O)Cc1cccc2ccccc12 | inconclusive: 0.611 µM [cytotoxic, single point]
OCCOCCN1CCN(C2=Nc3ccccc3Sc3ccccc32)CC1 | inconclusive: 29.8 µM [cytotoxic, partial curve]

Compound | Potency
CCN(CC)C(=O)c1ccc(O)c(OC)c1 | inactive
O=C(Nc1ccccc1)c1cc([N+](=O)[O-])ccc1Cl | inactive
COc1ccc(C(=O)Nc2nc3ccccc3c(NCc3ccccc3)c2C#N)cc1 | inconclusive: 12.2 µM [cytotoxic, full curve]
COC(=O)C1=C(C)NC(C)=C(C(=O)OC(C)C)C1c1cccc2nonc12 (configuration not stated) | inconclusive: 29.8 µM [cytotoxic, partial curve]
NC(=O)Nc1ccccc1 | inactive
CC(C)C/C=C(\C=O)c1ccccc1 | inconclusive: 48.6 µM [cytotoxic, partial curve]
Nc1cnn([C@@H]2O[C@H](CO)[C@@H](O)[C@H]2O)c(=O)n1 | inconclusive: 27.3 µM [cytotoxic, full curve]
CCCCCCCCCCc1ccccc1 | inactive
O=C1OC(CN2CCOCC2)CN1/N=C/c1ccc([N+](=O)[O-])o1 (configuration not stated) | inconclusive: 33.5 µM [cytotoxic, single point]
C/C=C/C=C/CCCCCCCO | inconclusive: 61.1 µM [cytotoxic, partial curve]
NNc1nncc2ccccc12 | inconclusive: 68.6 µM [cytotoxic, single point]
CC(=O)N(O)CCCCCNC(=O)CCC(=O)N(O)CCCCCNC(=O)CCC(=O)N(O)CCCCCN | inconclusive: 37.6 µM [cytotoxic, single point]
OC(C#CCN1CCCC1)(c1ccccc1)c1ccccc1 | inactive
Cc1cc(CC(=O)O)c(C)n1-c1ccc(Cl)cc1 | inconclusive: 33.5 µM [cytotoxic, partial curve, poor fit]
CN(C)C(=O)NC1(c2ccccc2)CCN(CC[C@@]2(c3ccc(F)c(F)c3)CN(C(=O)c3ccccc3)CCO2)CC1 | inconclusive: 35.8 µM [cytotoxic, partial curve]
O=C1[C@H](CC[C@H](O)c2ccc(F)cc2)[C@@H](c2ccc(O)cc2)N1c1ccc(F)cc1 | inconclusive: 29.8 µM [cytotoxic, partial curve]
O=C(NCCCN1CCOCC1)c1ccc(Cl)cc1 | inactive
Cc1cc(O)c2c(O)c3c(O)cccc3cc2c1 | inconclusive: 29.8 µM [cytotoxic, single point]
[O-][N+](=Nc1ccccc1)c1ccccc1 | inactive

Target: Nuclear receptor subfamily 1 group I member 3 (Homo sapiens) (UniProt Q14994)
Assay: qHTS assay to identify small molecule agonists of the constitutive androstane receptor (CAR) signaling pathway (AID 1224839); also: nearly all actives have a fitted effect of over 15% in size
Details: HepG2 hCAR CYP2B6-luciferase, agonist mode, 24 h; series mostly up to 92.4 µM
Method in brief: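 Stable hCAR/CYP2B6-2.2kb HepG2 line in DMEM with 10% FBS; compounds (15 concentrations) and 0.75 uM PK11195 final, 24 h at 37 C/5% CO2, then ONE-Glo luminescence after 30 min.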

Chain of UniProt Q14994 (Q14994 whole entry, looked up): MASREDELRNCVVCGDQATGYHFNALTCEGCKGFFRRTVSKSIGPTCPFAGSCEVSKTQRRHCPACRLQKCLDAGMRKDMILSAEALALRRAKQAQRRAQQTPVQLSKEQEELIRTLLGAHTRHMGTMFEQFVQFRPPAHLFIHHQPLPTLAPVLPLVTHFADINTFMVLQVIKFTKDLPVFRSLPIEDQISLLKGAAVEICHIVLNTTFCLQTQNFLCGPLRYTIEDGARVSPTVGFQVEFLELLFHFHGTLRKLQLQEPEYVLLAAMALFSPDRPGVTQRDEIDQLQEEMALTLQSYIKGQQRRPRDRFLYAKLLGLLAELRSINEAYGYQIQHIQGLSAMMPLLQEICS

Compound | Potency
CCc1ccc(CCOc2ccc(CC3SC(=O)NC3=O)cc2)nc1 (configuration not stated) | inconclusive: 54.5 µM [activator, partial curve]
O=C(Nc1ccccc1)c1cc([N+](=O)[O-])ccc1Cl | inactive
COC(=O)C1=C(C)NC(C)=C(C(=O)OC(C)C)C1c1cccc2nonc12 (configuration not stated) | inconclusive: 23.7 µM [activator, partial curve]
